# In all, about 33,000 sequences were measured (“E-score (-0.5 to 0.5)”: median about -0.054, highest 2% from about 0.39 on). Some of the results follow.
# Biological target: Ylr278c (UniProt Q05854)
# Test: PBM E-score (8-mer binding enrichment) (E-score (-0.5 to 0.5)); higher = stronger / more preferred TF binding; most listed sequences are background and not binding sites
# Conditions: protein concentration: 200 nM; construct: GST-DNA-binding domain
# How it was run: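 Using PURExpress in vitro transcription/translation, GST-tagged yeast transcription factors were made in full-length or DNA-binding-domain form. These were applied at about 100-200 nM to double-stranded universal all-10-mer Agilent arrays, and bound protein was detected with fluorescent anti-GST. Scans were normalised with masliner before the Universal PBM Analysis Suite assigned E-scores to ungapped eight-base words pooled with their reverse complements.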
row,Sequence,PBM E-score
1,ACAAGGAA,0.0444
2,ACAATCCC,0.257
3,AAGTTGGT,0.0137
4,CAAGTGTA,-0.18
5,GAGGACAA,-0.122
6,ATAGCCCA,-0.0838
7,CCCCGCGA,0.315
8,CCCTGACA,-0.119
9,CGGAGGTC,0.443
10,TACAACGA,-0.0145
11,CAATTTGA,0.0464
12,ATAAGCTC,0.0692
13,CGAAACCC,0.252
14,ACACGCTG,-0.171
15,CATAGTTA,-0.073
16,ACTTCGCT,-0.0759
17,AGCGTGGC,-0.0918
18,CTGTCGGC,0.35
19,CCAGCTGC,-0.0449
20,GATTTGAC,-0.0259
21,AATCTATG,-0.0536
22,CGATCCCG,0.263
23,TATGGTGA,-0.123
24,GAGGGGCC,-0.0204
25,CTCCGCCA,0.391

row,Sequence,PBM E-score
1,CCTTACAA,-0.13
2,AGTAGTAG,-0.146
3,AATATACT,0.0121
4,ACTTGCCC,0.0605
5,GCTCAGCC,-0.186
6,GGGACCAA,-0.0981
7,CAAACTAA,-0.0135
8,AAGGATTC,0.0256
9,AACAACCT,-0.104
10,AGGGTATC,-0.157
11,AACACGTC,-0.0585
12,CGCCAACC,0.104
13,GGTAGAAA,-0.0702
14,GCATCTCC,0.279
15,ACACTCTC,0.012
16,AGCGAAAC,0.0799
17,CCGCCACA,0.172
18,CTTTTTCC,0.167
19,AGATATAT,0.108
20,AGTGACCC,-0.0429
21,ATTGATCA,-0.202
22,AATATCGC,0.125
23,CGCGATTA,0.0862
24,CCCAAACA,-0.187
25,GAGTTTCA,0.038

row,Sequence,PBM E-score
1,CCACGCGC,-0.0375
2,CCGTTGTA,0.116
3,GCGTGTAC,-0.134
4,GATTTCGC,0.21
5,AATACTTG,-0.181
6,CACGCAGC,-0.00959
7,ATAGATCG,0.0794
8,AGTACGTC,-0.0722
9,CAAGTTAG,-0.0673
10,CTCTAAAA,-0.129
11,GCAGCTAC,-0.00295
12,AAGATTTA,0.0664
13,CGCCTAAA,-0.186
14,AGGTCAGC,-0.0623
15,CCCATGCG,-0.0748
16,TATATCAA,-0.0414
17,AAGATGGG,-0.0965
18,CGTTCTAA,0.129
19,GCCGTCGA,0.0565
20,TCACCCAA,0.0072
21,CAACCACC,0.042
22,GGCTCCCA,-0.145
23,ATGGAGGG,-0.302
24,ATTGCCGC,0.157
25,AGTCCATG,-0.0219

row,Sequence,PBM E-score
1,ACCTGAAC,-0.178
2,GCTGATCC,-0.00411
3,AAAATATC,-0.0383
4,AGAATAAC,-0.156
5,CGGTACAA,0.187
6,AGAAGCCT,-0.0867
7,CGGTAGAG,0.121
8,CGGCCCGC,0.223
9,AGGCTGGC,-0.223
10,AAACAACG,-0.0017
11,AGGCCTTG,-0.195
12,GAGGTCGA,-0.157
13,GTGGATAA,-0.0218
14,ACTCCGTC,0.459
15,GCCCGAAC,0.215
16,AGCTAGCC,-0.13
17,CCTCAACC,-0.293
18,CTCTCGGC,0.181
19,AAGTGGGA,0.0602
20,GGAAGGAA,-0.0382
21,AGTCCCTC,-0.137
22,ACTTGTGA,-0.263
23,AAGGTATG,-0.0741
24,ATTCGAGA,-0.196
25,GGTAGTAC,-0.0883

row,Sequence,PBM E-score
1,CTCCCGCA,0.243
2,GACATCAA,0.125
3,ACCCACCC,0.253
4,AGAAAGCA,-0.0831
5,TGAAAACA,-0.116
6,AACACAAG,-0.162
7,CGGCTTGC,0.156
8,AACACAGC,0.0155
9,ATCTATAC,-0.0439
10,CCACTCCC,0.0826
11,CAGGCGGC,0.0762
12,CATATCGA,-0.0441
13,GGTTGGGA,-0.108
14,CTCAACAC,-0.0996
15,ACACTTAT,-0.0994
16,ACCGTACT,-0.0306
17,AATCCTCT,-0.217
18,CACTTCAG,-0.0409
19,ACCGTTGA,-0.148
20,CTGACCCC,-0.0261
21,CAGTCTCG,-0.287
22,ATACAGGG,-0.00103
23,CTCTACTA,-0.245
24,ATACGCGA,-0.0101
25,AATACGAT,-0.0208

row,Sequence,PBM E-score
1,CCGATGCA,0.321
2,CCGGATCA,0.385
3,GTTGGCGA,0.0382
4,CCTGTGCC,-0.0999
5,GATAGCGA,-0.0967
6,ATACCGCA,0.171
7,CTGGTCCA,-0.0757
8,CCAGCTAG,-0.391
9,AGAAGAAG,-0.0903
10,CTCAGGCA,-0.005
11,ATACAGAG,-0.265
12,GCCGCAAC,0.204
13,AGTACGTG,-0.202
14,ATCAACGC,-0.14
15,GGTGCCCA,-0.189
16,GCTGACAA,-0.0996
17,AAAATCCC,0.263
18,CTTGCAAC,-0.159
19,AAGCCTGA,-0.263
20,GTACTAGA,-0.178
21,CGCGGTCA,0.179
22,ACTTACAG,-0.248
23,ACATCGGG,0.13
24,GAACCTAC,-0.0584
25,ACTTAGTA,0.00926

row,Sequence,PBM E-score
1,GGTTGGCA,-0.173
2,CTAAGTCA,-0.157
3,CATTCGTC,0.00738
4,AATTCGCC,0.123
5,ATAGCTGC,-0.116
6,GCGGGCAA,0.187
7,CTACGTGA,-0.241
8,CCCAACTA,-0.0927
9,CCCGAGAG,0.182
10,ACTACGTA,0.0434
11,CCCATCTA,-0.0604
12,ACACCATA,-0.129
13,ATGATCCA,-0.0231
14,AGCATATC,-0.0308
15,GCGTTTGA,-0.124
16,AATATTGT,0.0529
17,AATCTAAC,-0.055
18,TAACCATA,-0.211
19,AAAGAGGG,-0.238
20,CTGCCATA,-0.0982
21,AGCGCTAC,-0.121
22,GTAGATGA,0.031
